# Experimental data as given in PMC4336329 (PLoS ONE, 2015).
# About 2,200 (0.71%) of roughly 310,000 compounds showed an effect of 50% or more. Effects have a minus sign here. This is one part of the list.
# Molecular target: human ether-à-go-go-related gene (hERG) potassium channel (human, UniProt Q12809)
# Experiment: primary screen, population patch clamp on CHO cells stably expressing hERG
# Chain of human ether-à-go-go-related gene (hERG) potassium channel (Q12809 whole entry, looked up): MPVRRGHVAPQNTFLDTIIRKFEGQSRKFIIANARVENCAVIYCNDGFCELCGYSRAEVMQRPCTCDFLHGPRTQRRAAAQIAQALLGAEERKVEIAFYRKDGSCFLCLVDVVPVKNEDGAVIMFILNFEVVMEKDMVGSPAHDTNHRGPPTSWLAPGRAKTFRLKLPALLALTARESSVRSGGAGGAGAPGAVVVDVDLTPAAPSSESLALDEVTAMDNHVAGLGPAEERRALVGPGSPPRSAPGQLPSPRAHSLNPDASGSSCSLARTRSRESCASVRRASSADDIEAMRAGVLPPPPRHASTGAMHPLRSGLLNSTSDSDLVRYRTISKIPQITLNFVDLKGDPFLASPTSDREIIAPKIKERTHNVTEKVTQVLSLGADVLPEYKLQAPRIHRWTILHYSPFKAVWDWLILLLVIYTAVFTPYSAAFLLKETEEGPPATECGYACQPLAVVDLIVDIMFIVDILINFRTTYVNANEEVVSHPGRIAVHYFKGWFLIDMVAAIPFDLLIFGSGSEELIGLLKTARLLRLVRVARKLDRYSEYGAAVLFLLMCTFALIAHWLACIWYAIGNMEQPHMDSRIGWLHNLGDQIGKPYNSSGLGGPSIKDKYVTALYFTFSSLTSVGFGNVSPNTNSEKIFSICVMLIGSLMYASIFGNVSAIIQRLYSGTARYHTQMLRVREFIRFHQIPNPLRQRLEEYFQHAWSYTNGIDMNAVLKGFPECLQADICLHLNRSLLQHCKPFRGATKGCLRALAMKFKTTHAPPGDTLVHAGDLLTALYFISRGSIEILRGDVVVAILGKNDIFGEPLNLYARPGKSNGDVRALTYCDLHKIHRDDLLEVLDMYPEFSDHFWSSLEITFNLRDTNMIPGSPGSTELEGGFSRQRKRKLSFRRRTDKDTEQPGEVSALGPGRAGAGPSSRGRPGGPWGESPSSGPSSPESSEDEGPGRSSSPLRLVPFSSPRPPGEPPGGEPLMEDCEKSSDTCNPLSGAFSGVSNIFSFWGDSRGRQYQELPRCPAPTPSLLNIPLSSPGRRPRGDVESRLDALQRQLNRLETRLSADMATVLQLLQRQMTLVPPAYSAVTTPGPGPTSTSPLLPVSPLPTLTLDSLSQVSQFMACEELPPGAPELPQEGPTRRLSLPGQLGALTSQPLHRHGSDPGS
row,Structure (SMILES),"hERG current change (%, negative = inhibition) at 1uM [%]"
1,Cc1ccc2c(c1)N(CC(=O)N1CCCCCC1)C(=O)c1cccnc1O2,1.41
2,O=C(c1cnn(-c2ccccc2)c1-n1cccc1)N1CCN(C2CCCCC2)CC1,-29.3
3,Cc1c(CN2CCC(CO)(Cc3cccc(C(F)(F)F)c3)CC2)c2ccccc2n1C,-13.5
4,O=C(CCn1c(=S)oc2ccccc21)Nc1cccc(F)c1,11
5,Cc1ccc(S(=O)(=O)c2nc(S(=O)(=O)c3ccccc3)sc2N2CCN(CCO)CC2)cc1,0.609
6,O=C(NCc1ccccc1)C1=C[C@@H](c2csc3ccccc23)C[C@@H](OCCCCO)O1,-0.204
7,C=CCn1c(Cc2c[nH]c3ccccc23)n[nH]c1=S,9.65
8,Cc1cc(C(=O)CN2CCN(CC(=O)Nc3ccc(F)cc3)CC2)c(C)n1C1CC1,-72.3
9,Cc1ccc(S(=O)(=O)N2CCCCC2C)cc1[N+](=O)[O-] (centres unmarked),8.71
10,CCOc1cc(C(=O)N(CC)CC(=O)Nc2c(F)cccc2F)ccc1OCC(=O)N1CCCCC1,-4.04
11,OC(c1ccccc1)(c1ccccc1)C1CCN(C(=S)NC2CCCC2)CC1,13.2
12,COc1ccc(CC(=O)OCC(=O)Nc2c(C)n(C)n(-c3ccccc3)c2=O)cc1,-1.1
13,CCOc1ccccc1NC(=O)COC(=O)c1ccccc1SCC(=O)N1CCCC1,17.8
14,O/N=C\c1ccc2noc(-c3ccc(Cl)cc3)c2c1,13.6
15,Cc1ccc(N2C(=O)CSC2c2cccnc2)cc1F (centres unmarked),9.98
16,C#CCOCCOCCOCCNc1nc(N2CCN(C(=O)Cn3cc(CCC[NH+]=C(N)N)nn3)CC2)nc(N2CCN(C(=O)[C@H](CCCC[NH3+])n3cc(CCC(=O)O)nn3)CC2)n1.[Cl-],6.78
17,CC(C)(C)c1ccc(C(=O)Nc2nnc(Cc3c[nH]c4ccccc34)s2)cc1,8.76
18,Cl.O=C1c2cccc3cccc(c23)C(=O)N1CC1CCN(CC(O)COCc2ccc3c(c2)OCO3)CC1 (centres unmarked),-31.1
19,CC1(C)CC(=O)C(C=Nc2ccc3[nH]ncc3c2)=C(O)C1,0.072
20,COc1ccc(N2C(=O)CSC2c2ccc3c(c2)OCO3)cc1 (centres unmarked),6.32
21,Cc1ccsc1C(=O)NNC(=S)NC1CCCCC1,6.68
22,Cc1noc(C)c1-c1ccc2nc[nH]c(=O)c2c1,3.53
23,Fc1ccccc1-c1n[nH]c(=S)n1/N=C/c1c[nH]c2ccccc12,14.2
